Experimental data as given in the supplement of paper PMC11417369.
± gives the standard deviation of the averaged measurements. The list shows a part of the results.

Test system: PfAP2-EXP AP2 domain (GST-tagged)
Experiment: gcPBM binding intensity (ln(normalized median fluorescence intensity)); higher = stronger DNA binding
Method in brief: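 An Agilent 4 × 180k array carrying primer-extended double-stranded 36-bp intergenic genomic probes and negative controls received GST-tagged P. falciparum DNA-binding domains expressed in E. coli, about 25 μg on average, for 1 h. The binding buffer contained 1× PBS, 1% milk, 0.2 mg/ml BSA, 0.5% salmon testes DNA and 0.03% Triton X-100. Binding intensity is the top Masliner-normalised natural-log median intensity across replicate spots of either probe orientation, read after Alexa488 anti-GST antibody staining and a 488 nm scan.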

| Sequence | gcPBM binding intensity (ln) |
| --- | --- |
| TTTCTAAATAATATACACAAAAAAATAAAACACTAA [TGCATGCA_negctrl_site43] | 8.65 ± 0.4 |
| TGAAAAGATAAAAAATGTACATATATATTATATATA [XGTACX_site5678] | 8.54 ± 0.3 |
| ATACACAATTATTTTCCTATTATGCAAGCAAATTTA [CACACA_negctrl_site1176] | 8.52 ± 0.34 |
| GTTTAACTGTTTTATACACACAATGTAGACAATAAA [CACACA_site8967] | 8.69 ± 0.43 |
| ACTTGATTACACAACCACAAGTAATTGAAATTATTT [XGTACX_negctrl_site297] | 8.62 ± 0.33 |
| TAAATACATTGACACACACACAAATATGTACATACA [CACACA_site7371] | 8.88 ± 0.34 |
| CACTGTAAATAGAAAGTGCAAAAATTGTAAATAAAA [GTGCAC_site9980] | 8.87 ± 0.25 |
| GTACAAAAAAAGTGTACACAAAGTAAGACTTTAATT [CACACA_site5068] | 8.89 ± 0.33 |
| TATCATGTGCGTGCGTGTACTTAACACACATAATAT [XGTACX_site2404] | 8.52 ± 0.2 |
| TTATATGTTTCTTCACGTACGTATAAAAATGAACTT [XGTACX_site1764] | 8.77 ± 0.38 |
| TATTTTTATAAAAACTGTACATAATAAATAAAAATA [XGTACX_site4743] | 8.9 ± 0.45 |
| AATCAAAGTAATTTAACACACAATTTTAATACTGTT [CACACA_site7169] | 8.24 ± 0.58 |
| ATATTGACAAATATTACACACATATATATATATATA [CACACA_site4079] | 9.95 ± 0.38 |
| TCATTTATTTTAAGGTGTACCGTTTAAAATCACAAA [XGTACX_site3243] | 8.4 ± 0.4 |
| TTGTTCATTATGCACAGTACATAAAAAGTAAAAAAA [XGTACX_site2403] | 8.83 ± 0.35 |
| TTTTTTTGCGCGGGAAGAATAAAATTTATAGAATAT [TGCATGCA_negctrl_site306] | 8.74 ± 0.5 |
| CAGACATTAATAAGTAGTACACAATAATTGACTAGG [XGTACX_site854] | 8.8 ± 0.15 |
| AATTTACACGTACGTGTACACACAAAAATATGTTTT [CACACA_site8242] | 9.02 ± 0.29 |
| AATGTTTAATATAACGCATGCCTTAATATAGAATGC [TGCATGCA_site463] | 8.83 ± 0.37 |
| TATATATGTAGACGTTGTACTTTTTTGTAAGTTTAA [XGTACX_site5638] | 8.53 ± 0.42 |
| CATGACATATCCTGTAGTACAACGTATATATAAGAT [XGTACX_site2577] | 8.78 ± 0.43 |
| AAAATAAAATCATAAAGTACAAAAAGAAAATAAAAA [XGTACX_site7376] | 8.74 ± 0.64 |

| Sequence | gcPBM binding intensity (ln) |
| --- | --- |
| TGTGTCAAGTTTAATAAACGCATATAATATATATGA [CACACA_negctrl_site607] | 8.43 ± 0.46 |
| TTTAAATTTTTATATTGTACTTTATTTATTTATTTA [XGTACX_site869] | 8.48 ± 0.35 |
| ATGTTTAATTAAATATGTACTTATTATATTATATGT [XGTACX_site8137] | 8.42 ± 0.3 |
| TTTAATTTTTATATAACACACATATTGTAATTATGT [CACACA_site4566] | 8.38 ± 0.38 |
| AGGAATCTACATATATGTACATATATTGATATATTT [XGTACX_site137] | 8.49 ± 0.32 |
| TCAATAAATATACATACATGCATACATACATACATA [TGCATGCA_site197] | 8.72 ± 0.47 |
| GAACATTTATTGTGTGTGCACAATTCTTTTTTAACC [GTGCAC_site9697] | 8.63 ± 0.19 |
| TGTGTTAATATGAATTTAAACATAAATAAATAAATA [CACACA_negctrl_site1589] | 8.27 ± 0.39 |
| AATTTTCAATAGTATACACACAATTATATATATATA [CACACA_site1116] | 9.74 ± 0.54 |
| TCTTTTCTCGGAAGGGTGCAAGGAATTAATGAAATA [GTGCAC_site9706] | 8.845 ± 0.064 |
| ATATATATATGTTAGGTGCATATATATTTTGTGGAT [GTGCAC_site9964] | 9.835 ± 0.021 |
| ATAAAGATAATATATGCACACATATAAATATATAAA [CACACA_site9153] | 8.33 ± 0.26 |
| ATAAAAACTACATTCACACAAAAAAAAATCTACAAA [CACACA_site6109] | 8.39 ± 0.42 |
| AATAATATTAATAAAAGTACATGTGTAATATATATA [XGTACX_site5922] | 9.15 ± 0.3 |
| ATATATATAATATATTGTACATATAATATATATATA [XGTACX_site4792] | 9.24 ± 0.042 |
| ACATCTAGGCTTATTTTATGATACATGTGAATATAT [TGCATGCA_negctrl_site325] | 8.52 ± 0.33 |
| GTTTTTGAGTAGTACACACACAATAAGGATGGATTC [CACACA_site3192] | 8.89 ± 0.4 |
| ACATAACTTATATATACACACAATACAAATATATAT [CACACA_site2774] | 8.72 ± 0.34 |
| CTTTTTTTTTTGGGGGTGCATGCAAGACATATATTT [GTGCAC_site9660] | 10.51 ± 0.028 |
| ACTAAAAGGCTTAAATGTACATATTATATATATATA [XGTACX_site5897] | 9.83 ± 0.11 |
| ATAATTTCTATTTCACAAAAAAAAAAAAAAAAAAAA [CACACA_negctrl_site1012] | 7.93 ± 0.38 |
| GATATGATTATGTGATGGTGTTTTTGATAGATATTT [CACACA_negctrl_site1445] | 8.62 ± 0.5 |
